Earlier results in paper PMC8506653 (Clinical cancer research : an official journal of the …, 2021).

Experiments:
[1] = tested on: patients with first relapse of FLT3-mutated AML; conditions: cited from earlier work
[2] = tested on: patients with FLT3 positive AML; conditions: front-line; cited from earlier work

Structure (SMILES) | benefit of adding lestaurtinib to intensive salvage chemotherapy [1] | clinical outcomes on addition to standard intensive induction chemotherapy [2]
C[C@]12O[C@H](C[C@]1(O)CO)n1c3ccccc3c3c4c(c5c6ccccc6n2c5c31)CNC4=O [lestaurtinib] | no benefit | 
CO[C@@H]1[C@H](N(C)C(=O)c2ccccc2)C[C@H]2O[C@]1(C)n1c3ccccc3c3c4c(c5c6ccccc6n2c5c31)C(=O)NC4 [midostaurin] |  | improved clinical outcomes
